Experimental data reported in paper PMC8550428 (2021).

Target: T1, GST-P58^IPK fusion protein (human (cDNA from HUVEC), UniProt Q13217 32-504)
T1 chain: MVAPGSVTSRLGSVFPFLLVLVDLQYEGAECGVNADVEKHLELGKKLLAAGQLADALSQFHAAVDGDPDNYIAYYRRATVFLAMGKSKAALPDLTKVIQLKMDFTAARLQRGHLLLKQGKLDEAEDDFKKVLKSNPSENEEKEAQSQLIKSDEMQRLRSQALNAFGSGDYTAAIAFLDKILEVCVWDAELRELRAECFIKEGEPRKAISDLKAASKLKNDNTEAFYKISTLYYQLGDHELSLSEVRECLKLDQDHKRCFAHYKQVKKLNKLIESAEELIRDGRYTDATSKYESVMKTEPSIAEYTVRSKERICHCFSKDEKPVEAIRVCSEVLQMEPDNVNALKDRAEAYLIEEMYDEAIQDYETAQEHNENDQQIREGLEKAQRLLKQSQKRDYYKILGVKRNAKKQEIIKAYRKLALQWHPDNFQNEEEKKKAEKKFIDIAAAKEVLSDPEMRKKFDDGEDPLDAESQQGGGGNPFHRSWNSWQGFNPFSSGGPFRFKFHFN
Assay: BLI

B1: C-terminally His tagged Hsp40 (natural protein)
chain: GKDYYQTLGLARGASDEEIKRAYRRQALRYHPDKNKEPGAEEKFKEIAEAYDVLSDPRKREIFDRYGEEGLKGSGPSGGSGGGANGTSFSYTFHGDPHAMFAEFFGGRNPFDTFFGQRNGEEGMDIDDPFSGFPMGMGGFTNVNFGRSRSAQEPARKKQ[letters of about 150 residues omitted]PERIPQTSRTVLEQVLPI
- koff: 0.0697 s⁻¹
